No constants are given. Whether binding was seen depends on the method and setting. In cells and extracts the contact can be indirect. Some results given as binding are weak or reduced against the parent protein; the word gives no strength. Sequences can lack the tags named with a protein.

Sequences of proteins named here, by UniProt entry; tags and fusion partners are left off.
UniProt P26343: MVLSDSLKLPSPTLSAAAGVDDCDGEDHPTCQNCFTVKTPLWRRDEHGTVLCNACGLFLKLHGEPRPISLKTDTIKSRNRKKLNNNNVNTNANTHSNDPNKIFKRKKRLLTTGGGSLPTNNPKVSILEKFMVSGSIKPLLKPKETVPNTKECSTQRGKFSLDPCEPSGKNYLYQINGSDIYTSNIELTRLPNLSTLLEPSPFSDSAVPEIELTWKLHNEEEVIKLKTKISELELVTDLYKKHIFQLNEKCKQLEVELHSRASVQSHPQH

Experiment [1] addresses T1, GST-Fkh1 (full-length) (S. cerevisiae) (UniProt P40466).
T1 sequence: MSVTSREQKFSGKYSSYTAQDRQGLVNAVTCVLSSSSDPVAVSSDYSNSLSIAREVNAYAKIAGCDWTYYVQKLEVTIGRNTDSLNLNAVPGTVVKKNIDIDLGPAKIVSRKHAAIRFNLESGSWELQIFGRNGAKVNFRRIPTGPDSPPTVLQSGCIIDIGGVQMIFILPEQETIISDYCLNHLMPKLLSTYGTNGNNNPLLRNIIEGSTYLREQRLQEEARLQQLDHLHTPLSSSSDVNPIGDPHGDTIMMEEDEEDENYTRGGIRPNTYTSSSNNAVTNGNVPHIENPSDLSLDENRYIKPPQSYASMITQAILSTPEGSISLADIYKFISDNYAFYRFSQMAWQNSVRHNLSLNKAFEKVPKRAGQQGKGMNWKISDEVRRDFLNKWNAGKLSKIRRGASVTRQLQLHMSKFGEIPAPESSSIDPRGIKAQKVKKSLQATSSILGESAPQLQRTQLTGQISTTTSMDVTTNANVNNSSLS
In words: pull-down; GST fusions of repressors (full-length or length variants) immobilised on GSH sepharose, incubated with bacterial total protein extracts containing HA-tagged Sin3, Cyc8 or Tup1 (or Tup1 length variants); elution with free GSH, anti-HA blot (Figs. 1, 3, 4, 5); only the target purified.

In experiment [2] the target is T2, GST-Yhp1 (full-length) (S. cerevisiae) (UniProt Q04116).
T2 sequence: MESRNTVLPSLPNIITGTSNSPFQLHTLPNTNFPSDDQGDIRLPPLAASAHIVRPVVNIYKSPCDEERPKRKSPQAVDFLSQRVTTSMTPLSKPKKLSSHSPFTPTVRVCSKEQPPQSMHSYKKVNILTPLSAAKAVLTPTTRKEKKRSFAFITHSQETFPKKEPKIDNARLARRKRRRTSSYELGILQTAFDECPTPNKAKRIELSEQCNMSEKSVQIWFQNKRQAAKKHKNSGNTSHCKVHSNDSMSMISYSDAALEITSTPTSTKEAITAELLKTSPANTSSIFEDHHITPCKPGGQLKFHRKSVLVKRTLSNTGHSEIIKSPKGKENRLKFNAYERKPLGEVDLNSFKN
Described as above.

In experiment [3] the target is T3, GST-Opi1 (full-length) (S. cerevisiae) (UniProt P21957).
T3 sequence: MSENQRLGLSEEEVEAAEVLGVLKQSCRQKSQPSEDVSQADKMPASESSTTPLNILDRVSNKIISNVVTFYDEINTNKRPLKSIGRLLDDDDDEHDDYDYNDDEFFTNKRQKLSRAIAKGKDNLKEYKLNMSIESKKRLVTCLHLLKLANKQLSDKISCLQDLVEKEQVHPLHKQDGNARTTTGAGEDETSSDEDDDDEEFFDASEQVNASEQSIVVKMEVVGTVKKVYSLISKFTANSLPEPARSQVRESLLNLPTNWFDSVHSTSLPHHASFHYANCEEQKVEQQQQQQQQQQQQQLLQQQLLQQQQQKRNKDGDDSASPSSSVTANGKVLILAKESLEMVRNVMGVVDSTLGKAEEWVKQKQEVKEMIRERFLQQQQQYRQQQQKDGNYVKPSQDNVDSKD
Described as above.

The target of experiment [4] is GST-Dal80 (full-length) (S. cerevisiae) (UniProt P26343). In words: pull-down; GST fusions of full-length repressors immobilised on GSH sepharose, incubated with protein extracts from yeast transformants containing epitope-tagged Sin3 length variants; anti-HA blot (Fig. 2); only the target purified.
Experiment [5] concerns the target T2, GST-Yhp1 (full-length) (S. cerevisiae). The experiment is described as above.
Experiment [6] concerns the target T4, GST-Sko1 (full-length) (S. cerevisiae) (UniProt Q02100).
T4 sequence: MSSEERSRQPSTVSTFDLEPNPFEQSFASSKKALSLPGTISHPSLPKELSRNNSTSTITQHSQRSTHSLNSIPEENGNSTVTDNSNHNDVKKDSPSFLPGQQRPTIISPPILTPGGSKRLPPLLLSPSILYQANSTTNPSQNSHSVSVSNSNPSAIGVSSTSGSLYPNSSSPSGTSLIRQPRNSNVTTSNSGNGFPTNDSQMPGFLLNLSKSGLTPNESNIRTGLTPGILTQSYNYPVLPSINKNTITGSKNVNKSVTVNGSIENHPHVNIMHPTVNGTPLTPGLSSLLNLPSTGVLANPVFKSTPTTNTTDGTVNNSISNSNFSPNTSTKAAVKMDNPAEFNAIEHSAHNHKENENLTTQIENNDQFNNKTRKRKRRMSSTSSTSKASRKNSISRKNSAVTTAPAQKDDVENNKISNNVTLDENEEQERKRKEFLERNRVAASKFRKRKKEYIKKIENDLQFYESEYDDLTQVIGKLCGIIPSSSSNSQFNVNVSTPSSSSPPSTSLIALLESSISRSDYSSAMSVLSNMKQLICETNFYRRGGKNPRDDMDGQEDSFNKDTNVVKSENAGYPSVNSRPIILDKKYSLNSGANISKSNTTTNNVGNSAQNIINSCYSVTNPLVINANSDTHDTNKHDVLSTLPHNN
In words: pull-down; GST fusions of repressors (full-length or length variants) immobilised on GSH sepharose, incubated with bacterial total protein extracts containing HA-tagged Sin3, Cyc8 or Tup1 (or Tup1 length variants); elution with free GSH, anti-HA blot (Figs. 1, 3, 4, 5); only the target purified.

As to “HA3-Sin3 (full-length, aa 1-1536; pSW11) (from UniProt P22579 1-1536)”, the binding entry in experiment [1], in experiment [2] and in experiment [3] was “binds” throughout.

B1: epitope-tagged Sin3 length variant 1-300 (PAH1; pCW83) (domain or fragment, UniProt P22579 1-300)
chain: MSQVWHNSNSQSNDVATSNDATGSNERNEKEPSLQGNKPGFVQQQQRITLPSLSALSTKEEDRRDSNGQQALTSHAAHILGYPPPHSNAMPSIATDSALKQPHEYHPRPKSSSSSPSINASLMNAGPAPLPTVGAASFSLSRFDNPLPIKAPVHTEEPKSYNGLQEEEKATQRPQDCKEVPAGVQPADAPDPSSNHADANDDNNNNENSHDEDADYRPLNVKDALSYLEQVKFQFSSRPDIYNLFLDIMKDFKSQAIDTPGVIERVSTLFRGYPILIQGFNTFLPQGYRIECSSNPDDPI
For B1, the binding entry in experiment [4] and in experiment [5] was “binds” in each case.

B2: HA3-Cyc8 (aa 1-398 with 10 TPR motifs; pFK77) (domain or fragment, UniProt P14922 1-398)
chain: MNPGGEQTIMEQPAQQQQQQQQQQQQQQQQAAVPQQPLDPLTQSTAETWLSIASLAETLGDGDRAAMAYDATLQFNPSSAKALTSLAHLYRSRDMFQRAAELYERALLVNPELSDVWATLGHCYLMLDDLQRAYNAYQQALYHLSNPNVPKLWHGIGILYDRYGSLDYAEEAFAKVLELDPHFEKANEIYFRLGIIYKHQGKWSQALECFRYILPQPPAPLQEWDIWFQLGSVLESMGEWQGAKEAYEHVLAQNQHHAKVLQQLGCLYGMSNVQFYDPQKALDYLLKSLEADPSDATTWYHLGRVHMIRTDYTAAYDAFQQAVNRDSRNPIFWCSIGVLYYQISQYRDALDAYTRAIRLNPYISEVWYDLGTLYETCNNQLSDALDAYKQAARLDVNN
B2: the binding result in experiment [6] was “binds”.

For the origin of these results see paper PMC10163088.
